Results as given in US20240327477A1, “COMPOSITIONS AND METHODS FOR THE TREATMENT OF TDP-43 PROTEINOPATHIES” (SOLA BIOSCIENCES LLC, priority 2020, published 2024).
Blank lines part the entries; values can stand above or below the molecule they belong to.

Target: T1, GFP-TDP43CTF (Homo sapiens, UniProt Q13148)
T1 construct: expressed in transfected cells; host or cells: HEK293
Experiment: Fluorescence microscopy of GFP-TDP43CTF aggregation (GFP foci) in transfected HEK293 cells
Type: cell-based
Conditions: GFP-TDP43CTF reporter, Table 12 (FIG. 8/9A)
Method: Expression vector plasmids encoding various protein constructs were transfected into HEK293 cells with Lipofectamine 3000 transfection reagent (Thermo Fisher Scientific). Cell lysates were analyzed for expressed proteins using immunoblot assays. Samples of culture media were centrifuged to remove debris prior to analysis. Cells were lysed in a lysis buffer (10 mM Tris-HCl, pH 8.0, 150 mM NaCl, 10 mM EDTA, 2% SDS) containing 2 mM PMSF and protease cocktail (Complete Protease Inhibitor Cocktail; Sigma). After brief sonication, the samples were analyzed for expressed proteins using immunoblot assays. For immunoblot analysis, samples were boiled in an SDS-sample buffer and run on polyacrylamide electrophoresis. Thereafter, the separated protein bands were transferred to a PVDF membrane.
In some instances, aggregation of TDP-43 (full-length of C-terminal fragment) GFP reporter constructs (described below) were detected in vivo using fluorescence microscopy. Cultured cells expressing the reporter constructs as well as the fusion protein comprising the J domain and TDP-43-binding domain were washed with PBS and fixed with 4% paraformaldehyde in PBS for 5 minutes. After three 5-min washes with PBS, nuclear DNA was stained with DAPI. Percentage of cells containing TDP-43 (GFP foci) in transfected cells was counted. […]

- % Aggregation (normalized to GFP-TDP43CTF alone): 56.31%
B1: 9 (protein)
chain: MGTMGKDYYQTLGLARGASDEEIKRAYRRQALRYHPDKNKEPGAEEKFKEIAEAYDVLSDPRKREIFDRYGEEGLKGSGPSGGSGGGANGTSFSYTFHGDPHAMFAEFFGGRNPFDTFFGQRNGEEGMDIDDPFSGFPMGMGGFTNVNFGRSRSAQEPARKKQ[about 150 residues not listed]PERIPQTSRTVLEQVLPI

- % Aggregation (normalized to GFP-TDP43CTF alone): 28.55%
B2: 14 (protein)
chain: MGKDYYQTLGLARGASDEEIKRAYRRQALRYHPDKNKEPGAEEKFKEIAEAYDVLSDPRKREIFDRYGEEGLKGSDIGGGGSGGGGSGGGGSGGGGSAAASNWKWWPGIFDGLESNWKWWPGIFDSRDYKDDDDK
